# Reference: PubChem BioAssay AID1508642 (National Center for Advancing Translational Sciences (NCATS), 2021)
# Screen size: about 43,000 compounds; about 200 (0.47%) were called active. Roughly 12% stayed inconclusive and do not appear here. Calls come from the whole dose curve; as a rule, active = well fitted cell-killing curve with a large enough effect; inconclusive = small, poorly fitted or top-dose-only effect, or effect the other way; inactive = flat fitted curve, though single readings scatter. This is one part of the list.
# Test: Cell viability qHTS assay in S16 Pmp22-F2sN cells; note: nearly all actives have a fitted effect of over 65% in size
# Conditions: S16 Pmp22-F2sN Schwann cells (luciferase reporters placed in the Pmp22 gene) viability, CellTiter-Glo, 24 h; series mostly up to 57.5 µM; activity change, negative = cytotoxicity: at the top concentration
# Excerpt: Assay Provider: Jim Inglese Ph.D. National Center for Advancing Translational Science, National Institutes of Health, Rockville, MD CMT is a heterogeneous group of neurological disorders that affect approximately 1 in 2,500 people. In particular, the most common form of CMT, CMT1A is genetically linked to the duplication of the PMP22 gene which leads to Schwann cell overexpression, thus manifesting itself as a typical case of dose-sensitive diseases. To identify small molecule compounds that can mediate the expression of PMP22 we developed a phenotypic assay screening strategy by utilizing genome editing techniques to construct Schwann cell lines containing novel reporter technology to monitor the transcriptional or translational regulation of PMP22. For high sensitivity we use a bioluminescent reporter system embedded in the 3' UTR of the PMP22 gene (S16(c9) Pmp22-F2sN) to identify compounds that inhibit gene expression. […] We can further discriminate the effect of all transcriptionally active molecules on PMP22 translation or stability with an assay that incorporates a short NLuc peptide (HiBiT) at the C-terminus of expressed PMP22 (S16(f8) PMP22-HiBiT) allowing alpha complementation and luminescence detection of membrane-associated PMP22 protein. These assays were screened against the NCATS Sytravon Library Collection. Miniaturization of these assays to 1536-well plate format for quantitative high throughput screening (qHTS) yielded rich data sets immediately from the qHTS assay (S16(c9) Pmp22-F2sN), when compared with data from a cell viability assay (Cell TiterGlo) to identify compounds that decreased the output signals through cellular toxicity to streamline the selection process of actives for subsequent characterization using the HiBiT assay (S16(f8) PMP22-HiBiT).
# Cell viability assay in S16 Pmp22-F2sN cells PROTOCOL TABLE (format as described by Inglese J, Shamu CE and Guy RK. 2007) SEQUENCE No. (e.g., 1, 2, 3, etc.); […] (e.g., Cells, Incubation, Reagent, etc.); VALUE and DESCRIPTION. 1. Cells. Add 500-1,000 cells in 4 uL in growth media (DMEM High Glucose, No Phenol Red media + 10% heat-inactivated FBS + 1% Pen/Strep supplemented media) per well into Greiner 1536-well white/solid bottom high base, TC-treated plates. 2. Compounds. Library compounds and controls added at 23nL per well, transferred by Pin Tool. 3. Incubation. Incubate plates at 37C, 5% CO2, 95% RH for 24 h. 4. Reagent. Add 3uL CellTiter-Glo per well of Greiner 1536-well plates. 5. Incubation. Incubate plates at room temperature for 15 min., protect from light. 6. Detector. FLuc luminescence measured using CCD-based camera (Viewlux). NOTES (numbers refer to Sequence numbers above; values are from representative experiments) 6. Luminescence Read: Clear filter; Exposure = 1 sec, Gain = High, Speed = Slow, Binning = 2X REFERENCES: 1. Inglese J, Shamu CE and Guy RK, Reporting data from high throughput screening of small molecule libraries, Nature Chemical Biology, 2007, 3(8): 438-441. doi.org/10.1038/nchembio0807-438 2. Yasgar A, Shinn P, Jadhav A, Auld DS, Michael S, Zheng W, Austin CP, Inglese J and Simeonov A, Compound Management for Quantitative High-Throughput Screening. J. Assoc. Lab. Auto., 2008, 13: 79-89. doi: 10.1016/j.jala.2007.12.004
# % is set by controls: 0 for no effect and ±100 for the full control effect.
row,Structure (SMILES),"activity change, negative = cytotoxicity"
1,COC(=O)c1c(NC(=O)COc2ccc(OC)cc2)sc2c1CCC(C)C2 (stereo not drawn),inactive: -25.6%
2,CCCc1cc(=O)[nH]c2nnc(SCCC(C)C)n12,inactive: 2.79%
3,CCCN1C(=O)C2(c3ccccc31)c1c(oc3cc(C)c(C)cc3c1=O)C(=O)N2CCCOC (stereo not drawn),inactive: 16%
4,CCC(=O)N1c2ccccc2CC1C(=O)NCCc1ccc(OC)cc1OC (stereo not drawn),inactive: 21.7%
5,COc1ccc(CN2CCN(S(=O)(=O)c3ccccc3)CC2)c(OC)c1,inactive: -7.56%
6,CCCn1cc(S(=O)(=O)c2ccc(OC)cc2)c(=O)c2cc(F)c(N3CCCCCC3)cc21,inactive: -21.3%
7,CCn1cc(S(=O)(=O)c2ccc(C)cc2C)c(=O)c2cc(F)c(N3CCCC3)cc21,inactive: 2.01%
8,Cc1ccc(CSc2nnc3[nH]c(=O)cc(C)n23)cc1,inactive: -1.13%
9,CCc1ccc(NC(=O)C2CCN(S(=O)(=O)c3c(C)noc3/C=C\c3ccc(OC)cc3)CC2)cc1,inactive: 9.88%
10,COc1cc(C(=O)Nc2ccc(OCc3cc(=O)n4cccc(C)c4n3)cc2)cc(OC)c1OC,inactive: -26.1%
11,CCOc1ccc(CNC(=O)CCc2cn(CC)c3ccccc23)cc1,inactive: 15.5%
12,CC1=C(c2ccc(C)c(C)c2)S(=O)(=O)N=C1N1CCC(C(=O)N2CCCCC2)CC1,inactive: -1.47%
13,O=C(c1cnc(N2CCOCC2)c2ccccc12)N1CCN(c2ccccc2F)CC1,inactive: -6.24%
14,CN(C)c1ccc(CNC(=O)c2ccc3c(c2)N(C)C(=O)C2CCCCN32)cc1 (stereo not drawn),inactive: 8.73%
15,COc1ccc(-n2nc(C(=O)NCc3ccc(F)cc3)c3c4ccccc4n(C)c3c2=O)cc1,inactive: 3.7%
16,CCN(CC)C(=O)c1sc2c(c1C)c(=O)n(CCc1ccccc1)c(=O)n2Cc1cccc(Cl)c1,inactive: -16.9%
17,COc1ccccc1CNc1ccc(-c2nc(-c3cccc(C)c3)no2)cc1[N+](=O)[O-],inactive: -14.4%
18,CC(C)CCNC(=O)c1cc(Sc2ccc(F)cc2F)nc2ccccc12,inactive: -9.04%
19,COc1ccc(N2C(=O)CS(=O)(=O)C23C(=O)N(Cc2c(F)cccc2Cl)c2ccccc23)cc1 (stereo not drawn),inactive: 0.219%
20,COc1ccc(NC(=O)CN(C)S(=O)(=O)c2ccc3nc(C)sc3c2)cc1,inactive: 1.38%
21,CCOC(=O)C1=C(C(F)(F)F)Nc2ncnn2C1c1cccc(OC)c1OC (stereo not drawn),inactive: 7.21%
22,CCOC(=O)c1cnc2c(C)cc(C)cc2c1Nc1ccc(OCc2ccccc2)cc1,inactive: -11.7%
23,COc1ccc(NC(=O)C2=C(C)Nc3ncnn3C2c2ccccn2)cc1 (stereo not drawn),inactive: 1.58%
24,CNS(=O)(=O)c1cn(CC(=O)N2CCN(c3cccc(Cl)c3)CC2)cc1S(=O)(=O)NC,inactive: -5.16%

row,Structure (SMILES),"activity change, negative = cytotoxicity"
1,CC(C)Oc1ccc(CNC(=O)c2ccccc2NC(=O)c2nsc3ccccc23)cc1,inactive: 0.24%
2,O=S(=O)(NCCc1nnc2ccc(SCc3c(F)cccc3Cl)nn12)c1ccccc1,inactive: -29.6%
3,COC(=O)c1ccc(CN(Cc2ccc(OC)c(OC)c2)S(=O)(=O)c2cc(C(=O)Nc3cccc(C)c3)ccc2F)cc1,inactive: 5.07%
4,Cc1oc(-c2ccccc2F)nc1CSCC(=O)NCCc1ccccc1,inactive: -17.4%
5,CCC(Oc1ccccc1)C(=O)Nc1ccc(OCc2cc(=O)n3ccc(C)cc3n2)cc1 (stereo not drawn),inactive: -1.79%
6,O=C(CCCCn1c(=O)c2ccccc2n(Cc2ccccc2F)c1=O)NCc1ccccc1Cl,inactive: -17.6%
7,CCN(CC)C(=O)C1=CC(c2ccc3c(c2)OCO3)=NS(=O)(=O)N1C,inactive: 1.89%
8,Cc1ccc(NC(=O)CSc2nc3ccc(NC(=O)CCc4ccccc4)cc3s2)c(C)c1,inactive: 1.3%
9,CCc1ccccc1NC(=O)CN1C(=O)COc2ccc(S(=O)(=O)N3CCCCCC3)cc21,inactive: 4.71%
10,CCN(CC)S(=O)(=O)c1ccc2c(c1)N(CC(=O)NCC(C)c1ccccc1)C(=O)CO2 (stereo not drawn),inactive: -0.738%
11,COc1ccccc1CNC(=O)c1ccc2c(c1)N(Cc1ccc(C)cc1)CCS2,inactive: -3.45%
12,CCn1cc(C(=O)N2CCN(c3ccccc3OC)CC2)c(=O)c2cc(S(=O)(=O)N3CCC(C)CC3)ccc21,inactive: -4.29%
13,Cc1ccc(-n2ncc3c(N4CCCCCC4)ncnc32)cc1C,inactive: 18.5%
14,CN(C)c1ccc(CNC(=O)c2cccn2-c2nnc(N3CCCCC3)s2)cc1,inactive: -21.7%
15,CCOC(=O)c1cnc2nc(NCc3ccc(OCC)cc3)[nH]n2c1=O,inactive: -6.88%
16,Cc1ccc(C)c(NC(=O)CSc2nc(-c3ccccc3Cl)nc3c2Cc2c(CO)cnc(C)c2O3)c1,inactive: -1.06%
17,CCCCOc1ccc(C(=O)NCCc2csc(-c3ccc(OC)cc3)n2)cc1,inactive: -12.9%
18,CCN(Cc1ccccc1)S(=O)(=O)c1ccc2[nH]c3c(c2c1)CCCCC3,inactive: -1.12%
19,CN(Cc1ccccc1)c1ccc(-c2nc(-c3cccnc3)no2)cc1[N+](=O)[O-],inactive: 11.8%
20,CCOC(=O)c1cccc(NC(=O)c2nn(-c3ccc(OC)cc3)c(=O)c3c2c2ccccc2n3C)c1,inactive: 6.66%
21,Cc1cc(-c2nc3ncccc3o2)ccc1NC(=O)COc1cc(C)c(Cl)c(C)c1,inactive: 1.89%
22,O=C(NCc1ccc(F)cc1)C(=O)NCC(c1cccs1)S(=O)(=O)c1cccs1 (stereo not drawn),inactive: 5.98%
23,CCc1ccc(OCC(=O)Nc2ccc(Cl)c(-c3nc4ncccc4o3)c2)cc1,inactive: -1.22%
24,O=C(COc1ccccc1)Nc1c(Cl)ccc2nsnc12,inactive: 16.9%
